Results as given in PubChem BioAssay AID493208 (National Center for Advancing Translational Sciences (NCATS), 2011).
In all, about 44,000 compounds went through this assay and about 340 (0.77%) were called active. Another 5% or so got no clear call; they are omitted. Calls come from the whole dose curve; as a rule, active = well fitted inhibition curve with a large enough effect; inconclusive = small, poorly fitted or top-dose-only effect; inactive = flat fitted curve, though single readings scatter. This is one part of the list.

Assay: Acumen qHTS Assay for Inhibitors of the mTORC1 Signaling Pathway in MEF (Tsc2-/-, p53-/-) Cells: Sytravon;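 note: plate controls were DMSO for no effect and rapamycin for full effect; nearly all actives have a fitted effect of over 50% in size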
Conditions: phospho-rpS6 immunofluorescence/PI, 24 h; series mostly up to 38.3 µM; activity change, negative = inhibition: at the top concentration
Procedure, shortened: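 Plate MEFs (Tsc2-/-, p53-/-, empty vector) in DMEM/10% FBS; after 24 h add compound, incubate 24 h at 37 degree Celsius; fix in PFA/TX-100, block, stain phospho-rpS6 and 10 uM PI; scan at 488 nm; report % positive cells.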

Activity change, negative = inhibition, inactive:
CCOc1ccc(-n2c(=O)c3c4c(sc3n(CC(=O)NC(C)CC)c2=O)CCCCC4)cc1 (stereo unspecified) -0.173%
COC(=O)c1ccc(N2C(=O)Cc3cc(OC)c(OC)cc3C2c2ccc(F)cc2)cc1 (stereo unspecified) 7.61%
CCN1C(C(=O)c2ccccc2)=C(OC(=O)COc2ccc(C)cc2)c2ccccc2S1(=O)=O -12.4%
Cc1ccc(CNC(=O)CSc2nc3c(sc4ccccc43)c(=O)n2CCCC(=O)NCCO)cc1 -9.07%
O=C(Nc1ccc(F)cc1)Nc1csc2c1CCCC2 -0.644%
CCOc1ccc(CCn2c3c(c(=O)[nH]c2=O)C(NC(=O)c2cccc(F)c2)(C(F)(F)F)C(=O)N3)cc1OCC (stereo unspecified) 1.35%
Cc1c(CCNC(=O)c2c(F)cccc2F)sc2nc(-c3ccc(F)cc3)nn12 -3.08%
O=C(Cc1ccc(-c2ccccc2)cc1)NCCS(=O)(=O)N1CCN(c2ccc(F)cc2)CC1 -12.8%
Cn1ncc2c(N3CCN(c4ccc(F)cc4)CC3)ncnc21 7.37%
COc1cc(-c2nc3sccn3c2Nc2c(C)cccc2C)ccc1O 3.13%
O=C1Cc2cc(S(=O)(=O)N3CCN(c4cccc(Cl)c4)CC3)ccc2N1 1.35%
CC(=O)N1CCCc2ccc(NS(=O)(=O)c3cccc(Cl)c3)cc21 0%
CCn1c(C(=O)NCCc2ccc(S(N)(=O)=O)cc2)cc2sc(Cl)cc21 -2.7%
CC(=O)N1CCCC1c1nc2ccccc2n1Cc1ccccc1Cl (stereo unspecified) -6.22%
Cc1cc(Nc2ccc(Br)cc2)nc(C)n1 -7.36%
Cc1cccc(C)c1-n1ncc(C(=O)NCCCN2CCC(C)CC2)c1C1CCN(C(=O)OC(C)(C)C)CC1 -3.5%
CCC1CN(C(=O)N2CCC(C(=O)NCCc3ccc(OC)cc3OC)CC2)c2cc(C)ccc2O1 (stereo unspecified) -19.3%
Cc1cccc(OCc2nc(CC(=O)Nc3ccc(Cl)cc3)cs2)c1 2.09%
COc1cccc(CSc2nc3ccncc3n2CC(=O)Nc2ccc(OC)c(OC)c2OC)c1 -3.49%
CCOC(=O)c1cnc2c(ccc3ccccc32)c1Nc1ccc(C(C)=O)cc1 -20.4%
COc1ccccc1CNC(=O)Cc1csc2nc(-c3ccc(F)cc3)cn12 -15.3%
O=S(=O)(c1ccc(Cl)cc1)c1nc(-c2cccs2)oc1N1CCCCC1 6.79%
CCc1cc2c(cc3c(=O)n(CC(=O)NC(C)c4ccccc4)ncn32)s1 (stereo unspecified) -0.405%
COc1cccc(NC(=O)CCN2C(=O)c3ccccc3Sc3ncccc32)c1 -11.4%
Cc1cc(C)nc(-n2nc(C)c3c2N(Cc2ccccc2F)C(=O)CC3c2ccc(Cl)cc2)n1 (stereo unspecified) -9.39%
CCOC(=O)c1sc2ccccc2c1S(=O)(=O)NCc1ccccc1OC 1.34%
CCc1ccccc1NC(=O)C1CCN(S(=O)(=O)c2cn(C)cn2)CC1 1.37%
Cc1cccc(C(=O)Nc2cc3c(cc2C)n(C)c(=O)n3C)c1 22.3%
CCC(=O)N1CCc2cc(Br)cc(S(=O)(=O)NCCc3cccc(C)c3)c21 -1.47%
O=C(Nc1sc2c(c1C(=O)NCc1ccco1)CCCC2)c1cc(=O)c2cc(Cl)ccc2o1 -2.89%
Cc1cc(C)c2nc(C)cc(Nc3cccc(C(=O)O)c3)c2c1 -0.595%
CCOc1cc(C(=O)Nc2cc3c(cc2N2CCCC2)n(C)c(=O)c(=O)n3C)cc(OCC)c1OCC 2.85%
CCc1ccc(S(=O)(=O)Nc2cccc(-c3ccc(N4CCCCC4)nn3)c2)s1 -0.234%
O=C1C(c2ccc(F)cc2)N(CCc2ccc(Cl)cc2)C(=O)CN1C1CCCCC1 (stereo unspecified) 10.4%
COc1ccccc1NC(=O)Cn1c(C)cc(C)c(C#N)c1=O -7.95%
O=C(CCCCn1c(=O)c2ccccc2n(Cc2cccc(F)c2)c1=O)NCCc1ccccc1 -4.97%
Cc1ccc(C)c(NC(=O)CN2C(=O)CCc3cc(S(=O)(=O)N4CCCCC4)ccc32)c1 18.2%
CC(=O)N1CCC(N(Cc2ccc(C)o2)C(=O)Nc2cccc(C(F)(F)F)c2)CC1 1.88%
Cc1ccc2c(c1)-c1nc(-c3ccc4c(c3)NC(=O)CO4)cc(-c3ccccc3)c1CO2 2.31%
COc1ccc(NC(=O)Nc2cc(-c3cn4cccnc4n3)ccc2C)cc1 2.43%
O=C(NC1CCN(Cc2ccccc2)CC1)c1ccc(Cn2c(=O)c3ccccc3n(Cc3ccc(Cl)cc3)c2=O)cc1 -3%
CC(=O)N1CCc2c(sc3c2c(=O)n(-c2ccccc2)c(=O)n3CC(=O)c2ccccc2)C1 -3.7%
CC(=O)N1CCc2cc(S(=O)(=O)NC(Cc3ccccc3)C(=O)NCc3ccccc3)ccc21 (stereo unspecified) -0.495%
Cc1ccc(Cn2c(=O)n(Cc3ccccc3)c(=O)c3oc4ccccc4c32)cc1 5.68%
CC(=O)Nc1ccc(NC(=O)c2ccc3c(c2)N(Cc2cccc(Cl)c2)C(=O)c2ccccc2S3=O)cc1 (stereo unspecified) 1.7%
COCc1nc2ccccc2n1Cc1ccc(C(C)(C)C)cc1 -17.1%
COc1ccc2[nH]c3c(c2c1)CCN(C(=O)CCC1CCCC1)C3c1ccc(F)cc1 (stereo unspecified) -13.4%
O=C(CC1N=C2c3ccccc3N=C(SCc3ccc(F)cc3)N2C1=O)NCCc1ccccc1 (stereo unspecified) -2.67%
Cc1cccc(Cn2c(-c3ccccc3)nc3ccccc32)c1 -1.77%
O=C(CSc1nccn1-c1ccc(F)cc1)Nc1nc2ccccc2s1 -0.534%
Cc1ccc(-c2cnc(C3CC3)o2)cc1S(=O)(=O)Nc1cccc(C)c1C 0%
CC(C)(C)OC(=O)N1CCC(c2c(C(=O)N3CCN(c4ccccn4)CC3)cnn2-c2ccc(F)cc2F)CC1 6.88%
CCN1CCN(c2csc3ccc(Br)cc3c2=O)CC1 0.127%
COc1ccc(NC(=O)C2CCCN(S(=O)(=O)c3c(C)[nH]c(=O)[nH]c3=O)C2)cc1OC (stereo unspecified) -15.4%
CCn1c(=O)c2cc(C(=O)NCc3cc(OC)ccc3OC)sc2c2ccccc21 -4.3%
Cc1ccc(NC(=O)C2CCCN(c3ncnc4c3nc3n4CCCCC3)C2)c(Br)c1 (stereo unspecified) 1.02%
CC(C)(C)c1ccc(C(=O)NCC(=O)OCc2cc(=O)n3nc(C4CC4)sc3n2)cc1 1.02%
COc1ccc(NC(=O)c2oc3ccccc3c2NC(=O)c2cc(=O)c3cc(Cl)ccc3o2)cc1 -3.12%
COc1ccc(Cl)cc1NCc1nnc2n1CCCCC2 0%
COc1ccc(CC(C)NS(=O)(=O)c2ccc3c(c2)CCN3S(C)(=O)=O)cc1OC (stereo unspecified) -1.48%
COC(=O)c1c(NC(=O)c2ccc(OC)cc2OC)sc2c1CCCCC2 -1.23%
